Experimental findings from ChEMBL document CHEMBL4888484, “Replenishing the malaria drug discovery pipeline: Screening and hit evaluation of the MMV Hit Generation Library 1 (HGL1) against asexual blood stage Plasmodium falciparum ,using a nano luciferase reporter read-out” (2022) are described below.

The whole screen tested about 150,000 compounds, of which about 540 (0.36%) showed an effect of 50% or more. The list shows a part of the results.

The subject of the assay is Plasmodium falciparum. In words: Primary screen in NF54 nanoGlo assay, in single point, at 2uM, 72h; a lower Z score goes with more inhibition. The format is functional, Erythrocyte. As to conditions: timepoint 72 hour.
Take `CCN(Cc1ccc2nsnc2c1)[C@H]1CCS(=O)(=O)C1`: the “% Inhibition” value was -17% and the Z score came out at 2.4.
The corresponding values for `O=c1c2ccccc2ncn1CCc1ncnn1Cc1ccc2c(c1)OCO2` are -8% and 1.49.
The corresponding values for `COc1cc(OC)cc(C(C(=O)O)N2C3CCC2CC2(CC2)C3)c1` (stereo unspecified) are -5% and 0.88.
Consider `Cc1[nH]c2ccccc2c1CCn1nnnc1N(C)C[C@H]1CCOC1`, for which the “% Inhibition” value is listed as -4% and the Z score is recorded as 0.59.
Taken in the same sequence, the figures for `COc1ccccc1NC(=O)C1=C(C)Nc2nnnn2[C@H]1c1cccc(F)c1` were -4% and 0.52.
Taken in the same sequence, the figures for `Cc1ccc(CS(=O)(=O)Cc2ccc(C(=O)N3CCCC3)o2)cc1` were -13% and 2.5.
Taken in the same sequence, the figures for `O=C(Nc1nncs1)[C@H]1CCCN(C(=O)c2ccc3c(c2)CCC3)C1` were -9% and 1.33.
For the compound `O=C1C2CCC(c3ccccc3)CC2C(=O)N1c1cccc(C(F)(F)F)c1` (stereo unspecified), the “% Inhibition” value was determined as 8% and the Z score is -1.03.
As to `O=S(=O)(c1ccc(F)cc1F)N1CCCN(c2nc3cccnc3s2)CC1`, the “% Inhibition” value is -24% and the Z score turned out to be 2.46.
Taken in the same sequence, the figures for `COCCC(C)(C)C(=O)Nc1cccc(-n2c(C)c[nH]c2=O)c1` were -5% and 0.78.
For `NC(=O)[C@H]1CCN(C(=O)c2cc(-c3ccccc3)cs2)C1`, the “% Inhibition” value is listed as -5% and the Z score was determined as 0.78.
Taken in the same sequence, the figures for `COCCOc1ccc(N)cc1Cl` were -10% and 1.04.
The corresponding values for `O=C(CO)N1CCN(c2cnc3cc(Cl)c(Cl)cc3n2)CC1` are 5% and -0.62.
On to `CNC(=O)c1cccnc1N1C[C@@H]2COc3ccccc3C[C@]2(CO)C1`, for which the “% Inhibition” value is reported as -6% and the Z score was 0.79.
The corresponding values for `Cc1cc(Cl)ccc1NC(=O)c1c(N2CCCC2=O)c2cc(F)ccc2n1C` are 6% and -1.02.
For the compound `Cc1nc(CC(=O)N2CCc3[nH]cnc3[C@H]2c2cccnc2)cs1`, the “% Inhibition” value is recorded as -1% and the Z score amounted to 0.13.
The corresponding values for `O=C(CCc1ccccc1)Nn1cnc2ccccc2c1=O` are -9% and 1.15.
Regarding `COCC1(CNC(=O)c2cc(O)cc(O)n2)CCC1`, the “% Inhibition” value was 8% and the Z score is recorded as -1.09.
The corresponding values for `COc1c(F)cc([C@@H]2C[C@H](NC(C)=O)C[C@H](C(C)C)O2)cc1Cl` are 1% and -0.24.
Taken in the same sequence, the figures for `Cc1cccc(-n2c(=O)n(Cc3ccccc3)c(=O)c3c2ncn3Cc2ccccc2)c1` were 1% and -0.24.
Taken in the same sequence, the figures for `COc1ccc(CCNc2nc(-c3ccc(F)cc3)c3c(N)n(-c4ccccc4Cl)nc3n2)cc1` were -31% and 3.62.
Regarding `C[C@@H](CCc1cccn1C)Nc1ccccn1`, the “% Inhibition” value is on record as -11% and the Z score was determined as 1.42.
Taken in the same sequence, the figures for `CC(C)(CNC(=O)Nc1nc(CS(C)(=O)=O)no1)C1CCCC1` were -8% and 1.06.
For `Cc1cc(Br)cnc1NCC(=O)NCC(F)(F)F`, the “% Inhibition” value is recorded as -13% and the Z score is 2.36.
On to `O=C(Nc1ccc(N2CCCC2=O)cc1)[C@@H]1CC=CCC1`, for which the “% Inhibition” value is reported as -7% and the Z score came out at 0.62.
The corresponding values for `CC(NC(=O)C(C)N1CCc2nn[nH]c2C1)c1ccc(F)cc1` (stereo unspecified) are -6% and 0.93.
For `CCc1cc(CNC(=O)Cn2ncc(N3CCOCC3)cc2=O)on1`, the “% Inhibition” value stood at 4% and the Z score is -0.48.
The corresponding values for `CNS(=O)(=O)CCCn1nc(C(F)(F)F)ccc1=O` are -14% and 1.59.
Turning to `Clc1cnn(Cc2cc(-c3ccccc3)on2)c1`, the “% Inhibition” value stood at 1% and the Z score is listed as -0.08.
Taken in the same sequence, the figures for `CCOc1cc2c3c(c1)[C@@H](C)CC(C)(C)N3C(=O)C2=O` were 14% and -2.08.
Taken in the same sequence, the figures for `CCc1ccc2c(c1)[C@H]1OCCC[C@H]1C(c1ccc(OC)c(C)c1)N2` (stereo partly specified) were -9% and 1.48.
The corresponding values for `CCNC(=O)NC(=O)[C@H](C)N(C)Cc1cccs1` are -12% and 1.72.
Regarding `CC(C)(C)CN1CC[C@H](c2nnc(-c3ccccc3)o2)C1`, the “% Inhibition” value was -9% and the Z score was found to be 1.68.
The corresponding values for `CC(C)c1nnsc1CN(CCO)[C@H]1CS(=O)(=O)C[C@@H]1O` are -9% and 1.75.
On to `c1cc2c(cc1-c1nc([C@H]3CCOC3)no1)CCO2`, for which the “% Inhibition” value was 5% and the Z score is -0.9.
Taken in the same sequence, the figures for `O=C(CN1C(=O)NC2(CCCCCCC2)C1=O)c1ccc(Oc2ccccc2)cc1` were -10% and 1.12.
The corresponding values for `NC(=O)Cc1nc(-c2cncc(O)n2)n(CC(F)(F)F)n1` are 7% and -1.26.
The corresponding values for `Cn1cc(C2CCN(C3Cc4ccccc4C3O)C2)cn1` (stereo unspecified) are 2% and -0.36.
As for `Cc1occc1C(=O)NCC1(c2ccncc2)CCCCC1`, the “% Inhibition” value is -3% and the Z score was determined as 0.29.
On to `CC(C)C(=O)N1CC(c2noc([C@@H]3CCCN3CC3CC3)n2)C1`, for which the “% Inhibition” value was -5% and the Z score is 0.63.
Regarding `Cc1cc(NC(=O)c2n[nH]c(=O)c3ccccc23)no1`, the “% Inhibition” value is given as -15% and the Z score turned out to be 1.35.
The corresponding values for `COCCC1(c2noc(C3CCOCC3)n2)CCN(Cc2c(C)noc2C)CC1` are -8% and 1.03.
Taken in the same sequence, the figures for `Cc1cc(C(=O)N(C)[C@H]2CCCN(C(=O)CCc3cnn(C)c3)C2)n(C)n1` were 15% and -1.89.

As usually defined, the % Inhibition is the drop in the measured response relative to a control, in per cent.
